Experimental data as given in paper PMC4336329 (PLoS ONE, 2015).
Screen size: about 310,000 compounds; about 2,200 (0.71%) showed an effect of 50% or more. Effects have a minus sign here. The list shows a part of the results.

molecular target: human ether-à-go-go-related gene (hERG) potassium channel (human, UniProt Q12809); assay: primary screen, population patch clamp on CHO cells stably expressing hERG
Sequence (Q12809 whole entry, looked up): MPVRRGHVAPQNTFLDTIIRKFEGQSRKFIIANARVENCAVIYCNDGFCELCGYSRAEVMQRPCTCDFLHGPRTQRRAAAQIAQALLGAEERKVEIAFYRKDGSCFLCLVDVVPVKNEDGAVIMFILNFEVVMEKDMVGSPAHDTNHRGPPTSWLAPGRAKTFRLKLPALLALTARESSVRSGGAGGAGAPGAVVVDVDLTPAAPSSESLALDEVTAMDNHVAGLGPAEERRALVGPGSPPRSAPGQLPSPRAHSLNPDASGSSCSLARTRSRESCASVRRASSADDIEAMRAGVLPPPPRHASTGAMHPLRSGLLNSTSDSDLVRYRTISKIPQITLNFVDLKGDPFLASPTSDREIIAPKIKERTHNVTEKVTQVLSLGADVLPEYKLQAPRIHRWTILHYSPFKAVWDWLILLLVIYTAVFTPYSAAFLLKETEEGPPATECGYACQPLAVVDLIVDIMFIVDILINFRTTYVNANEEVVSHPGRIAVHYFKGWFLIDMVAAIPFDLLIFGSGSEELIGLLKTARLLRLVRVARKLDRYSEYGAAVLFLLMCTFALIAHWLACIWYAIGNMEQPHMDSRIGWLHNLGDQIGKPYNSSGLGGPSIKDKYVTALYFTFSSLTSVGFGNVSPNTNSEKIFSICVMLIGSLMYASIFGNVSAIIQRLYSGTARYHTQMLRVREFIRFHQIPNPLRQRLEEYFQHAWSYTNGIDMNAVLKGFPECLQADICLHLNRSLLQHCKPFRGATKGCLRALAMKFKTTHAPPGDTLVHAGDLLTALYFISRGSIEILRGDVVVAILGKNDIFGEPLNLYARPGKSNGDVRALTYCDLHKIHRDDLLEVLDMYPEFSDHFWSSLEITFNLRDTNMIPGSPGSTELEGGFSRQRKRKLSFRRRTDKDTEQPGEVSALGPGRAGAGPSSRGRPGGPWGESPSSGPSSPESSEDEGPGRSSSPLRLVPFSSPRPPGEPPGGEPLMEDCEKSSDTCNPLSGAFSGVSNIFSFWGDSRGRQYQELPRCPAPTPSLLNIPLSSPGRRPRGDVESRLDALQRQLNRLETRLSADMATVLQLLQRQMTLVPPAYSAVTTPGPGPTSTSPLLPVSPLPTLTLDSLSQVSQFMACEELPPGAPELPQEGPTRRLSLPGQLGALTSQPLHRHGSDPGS

Structure (SMILES) | hERG current change (%, negative = inhibition) at 1uM
Cc1ccc(-c2ccc(/C=N/NC(=O)c3ccccc3O)o2)cc1 | 15.2%
O=C(Cn1ccc2ccccc2c1=O)NCCC(=O)N1CCCCC1 | 12.9%
CCCCC(=Nc1ccc(N)cc1)C1=C(O)C(C(=O)OC)C(C)(C)CC1=O (centres unmarked) | 4.92%
O=C(Cc1ccc(Cl)c(Cl)c1)Nc1cccnc1 | 5.04%
O=c1cc(-c2ccncc2)oc2c1ccc1ccccc12 | 8.9%
Cc1ccc(OCC(=O)NC(=S)Nc2ccc3c4c(cccc24)CC3)cc1 | 10.4%
COc1ccc(CNC(=O)Cn2ccc(N)nc2=O)cc1 | 16%
CCC(=O)Nc1ccc2c(c1)nc(CCN1CCC(C)CC1)n2C | 12.3%
CCN(CC)S(=O)(=O)c1ccc(NC2c3ccccc3C(=O)N2CCN2CCOCC2)cc1 (centres unmarked) | -15.5%
CCc1ccc(NC(=O)COC(=O)CN2C(=O)COc3ccccc32)cc1 | -0.617%
COC(=O)C1=C(C)N(c2cccc(C(C)=O)c2)C(=O)C1 | 12.8%
O=C(CCCNS(=O)(=O)c1cccc2nsnc12)NCc1ccc(Cl)cc1 | -4.65%
CC(C)OC(=O)CSc1nnc(C2CCCCC2)n1N | 8.17%
CCOc1ccc(N=C2NC(=O)/C(=C/C(=O)OC)S2)cc1 | 7.75%
COc1ccc(/C=N/NC(=O)CNc2c(Br)cc(C)cc2Br)c(C(=O)O)c1OC | 10.2%
Cc1cc2c(cc1S(=O)(=O)CCC(=O)NCCc1ccccc1)OCC(=O)N2 | -45.7%
COc1ccc(N=Cc2ccc[nH]2)cc1 | 7.83%
COc1cccc(C(=O)Nc2cccc(OC(C)=O)c2)c1 | 6.53%
CC(C)[C@H](NC(=O)NCCc1ccc(F)cc1)C(=O)O | 4%
COc1ccc(C(=O)NCC(=O)OCC(=O)Nc2cc([N+](=O)[O-])ccc2F)cc1 | 5.81%
Cc1ccc(C(=O)CSc2nnc(C)s2)cc1 | 12.3%
COCCCn1c(SCc2ccccc2)nc2cc(OC)c(OC)cc2c1=N | 9.67%
Nc1nc(CSC(=S)N2CCOCC2)nc(Nc2ccccc2)n1 | 5.37%
C/C(=N\NC(=O)c1cc(Br)ccc1O)c1ccccn1 | 11.2%
CC1CC(c2ccccc2)NS(=O)(=O)O1 (centres unmarked) | 4.31%
CCCNC(=O)C(Cc1ccc(I)cc1)NC(=O)C1CC1 (centres unmarked) | 0.0046%
